Laboratory results taken from patent EP4477673A1, “IMMUNOCONJUGATE AND USE THEREOF” (priority 2022, dated 2023).

B1: A-V91T (Fc fusion)
chain 1: EVQLQESGGGLVQPGGSLRLSCTASGLTFSDYSMSWYRQAPGKGRELVAIISGSGVIAHYVDSVKGRFTISRDNSKNTVYLQMRSLTPEDRAVYYCRAVSDWDDYWGQGTQVTVSS[human IgG1 Fc with changes not written out]GGGGSGGGGSGGGGSAPASSSTKKTQLQLEHLLLDLQMILNGINNYKNPKLTEMLTAKFYMPKKATELKHLQCLEEELKPLEEVLNLAQSKNFHLRPRDLISNINTIVLELKGSETTFMCEYADETATIVEFLNRWITFAQSIISTLT
chain 2: EVQLQESGGGLVQPGGSLRLSCTASGLTFSDYSMSWYRQAPGKGRELVAIISGSGVIAHYVDSVKGRFTISRDNSKNTVYLQMRSLTPEDRAVYYCRAVSDWDDYWGQGTQVTVSSEPKSSDKTHTCPPCPAPEAAGGPSVFLFPPKPKDTLMISRTPEVTCVVVDVSHEDPEVKFNWYVDGVEVHNAKTKPREEQYNSTYRVVSVLTVLHQDWLNGKEYKCKVSNKALGAPIEKTISKAKGQPREPQVCTLPPSRDELTKNQVSLSCAVKGFYPSDIAVEWESNGQPENNYKTTPPVLDSDGSFFLVSKLTVDKSRWQQGNVFSCSVMHEALHNRFTQKSLSLSP
B2: C-V91T (Fc fusion)
heavy: QVQLVQSGVEVKKPGASVKVSCKASGYTFTNYYMYWVRQAPGQGLEWMGGINPSNGGTNFNEKFKNRVTLTTDSSTTTAYMELKSLQFDDTAVYYCARRDYRFDMGFDYWGQGTTVTVSSASTKGPSVFPLAPSSKSTSGGTAALGCLVKDYFPEPVTVSWNSGALTSGVHTFPAVLQSSGLYSLSSVVTVPSSSLGTQTYICNVNHKPSNTKVDKKV[human IgG1 Fc with changes not written out]GGGGSGGGGSGGGGSAPASSSTKKTQLQLEHLLLDLQMILNGINNYKNPKLTEMLTAKFYMPKKATELKHLQCLEEELKPLEEVLNLAQSKNFHLRPRDLISNINTIVLELKGSETTFMCEYADETATIVEFLNRWITFAQSIISTLT
chain: B1 chain 2
light: EIVLTQSPATLSLSPGERATLSCRASKGVSTSGYSYLHWYQQKPGQAPRLLIYLASYLESGVPARFSGSGSGTDFTLTISSLEPEDFAVYYCQHSRDLPLTFGGGTKVEIKRTVAAPSVFIFPPSDEQLKSGTASVVCLLNNFYPREAKVQWKVDNALQSGNSQESVTEQDSKDSTYSLSSTLTLSKADYEKHKVYACEVTHQGLSSPVTKSFNRGEC
B3: E-V91T (Fc fusion)
heavy 1: EVQLQESGGGLVQPGGSLRLSCTASGLTFSDYSMSWYRQAPGKGRELVAIISGSGVIAHYVDSVKGRFTISRDNSKNTVYLQMRSLTPEDRAVYYCRAVSDWDDYWGQGTQVTVSSGGGGSGGGGSQVQLVQSGVEVKKPGASVKVSCKASGYTFTNYYMYWVRQAPGQGLEWMGGINPSNGGTNFNEKFKNRVTLTTDSSTTTAYMELKSLQFDDTAVYYCARRDYRFDMGFDYWGQGTTVTVSSASTKGPSVFPLAPSSKSTSGGTAALGCLVKDYFPEPVTVSWNSGALTSGVHTFPAVLQSSGLYSLSSVVTVPSSSLGTQTYICNVNHKPSNTKVDKKV[human IgG1 Fc with changes not written out]GGGGSGGGGSGGGGSAPASSSTKKTQLQLEHLLLDLQMILNGINNYKNPKLTEMLTAKFYMPKKATELKHLQCLEEELKPLEEVLNLAQSKNFHLRPRDLISNINTIVLELKGSETTFMCEYADETATIVEFLNRWITFAQSIISTLT
heavy 2: EVQLQESGGGLVQPGGSLRLSCTASGLTFSDYSMSWYRQAPGKGRELVAIISGSGVIAHYVDSVKGRFTISRDNSKNTVYLQMRSLTPEDRAVYYCRAVSDWDDYWGQGTQVTVSSGGGGSGGGGSQVQLVQSGVEVKKPGASVKVSCKASGYTFTNYYMYWVRQAPGQGLEWMGGINPSNGGTNFNEKFKNRVTLTTDSSTTTAYMELKSLQFDDTAVYYCARRDYRFDMGFDYWGQGTTVTVSSASTKGPSVFPLAPSSKSTSGGTAALGCLVKDYFPEPVTVSWNSGALTSGVHTFPAVLQSSGLYSLSSVVTVPSSSLGTQTYICNVNHKPSNTKVDKKVEPKSCDKTHTCPPCPAPEAAGGPSVFLFPPKPKDTLMISRTPEVTCVVVDVSHEDPEVKFNWYVDGVEVHNAKTKPREEQYNSTYRVVSVLTVLHQDWLNGKEYKCKVSNKALGAPIEKTISKAKGQPREPQVCTLPPSRDELTKNQVSLSCAVKGFYPSDIAVEWESNGQPENNYKTTPPVLDSDGSFFLVSKLTVDKSRWQQGNVFSCSVMHEALHNRFTQKSLSLSP
light: B2 light

Assays:
IL-2Rβ/γ on M07e cells = target: T1, IL-2Rβ/γ on M07e cells (human, UniProt P14784 27-551; P31785 23-369); assay: cell-based or functional assay
T1 sequence (looked up) 1: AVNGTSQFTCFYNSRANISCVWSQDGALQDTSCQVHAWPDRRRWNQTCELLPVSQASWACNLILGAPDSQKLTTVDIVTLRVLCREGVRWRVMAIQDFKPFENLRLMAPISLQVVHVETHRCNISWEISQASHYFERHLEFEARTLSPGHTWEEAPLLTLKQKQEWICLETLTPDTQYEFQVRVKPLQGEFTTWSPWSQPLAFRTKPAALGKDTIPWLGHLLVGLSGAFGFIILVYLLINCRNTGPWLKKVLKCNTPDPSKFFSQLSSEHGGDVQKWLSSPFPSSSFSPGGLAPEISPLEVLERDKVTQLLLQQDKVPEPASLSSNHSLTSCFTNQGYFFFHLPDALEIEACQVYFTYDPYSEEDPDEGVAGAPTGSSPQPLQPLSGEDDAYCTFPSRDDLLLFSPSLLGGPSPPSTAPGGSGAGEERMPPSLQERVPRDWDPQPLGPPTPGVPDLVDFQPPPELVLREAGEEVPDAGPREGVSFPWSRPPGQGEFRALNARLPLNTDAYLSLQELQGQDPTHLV
T1 sequence (looked up) 2: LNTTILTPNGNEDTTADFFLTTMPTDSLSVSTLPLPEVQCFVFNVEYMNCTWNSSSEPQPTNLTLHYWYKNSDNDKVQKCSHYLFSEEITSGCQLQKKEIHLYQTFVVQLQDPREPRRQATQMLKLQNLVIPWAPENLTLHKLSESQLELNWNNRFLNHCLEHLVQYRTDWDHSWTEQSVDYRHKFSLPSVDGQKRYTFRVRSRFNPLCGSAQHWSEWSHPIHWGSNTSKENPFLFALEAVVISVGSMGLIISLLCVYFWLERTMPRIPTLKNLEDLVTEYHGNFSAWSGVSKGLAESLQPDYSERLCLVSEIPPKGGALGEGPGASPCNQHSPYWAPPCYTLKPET

human PD-1 = human PD-1 (human, UniProt Q15116 25-288); assay: cell-based or functional assay
human PD-1, sequence (Q15116 25-288 limits assumed): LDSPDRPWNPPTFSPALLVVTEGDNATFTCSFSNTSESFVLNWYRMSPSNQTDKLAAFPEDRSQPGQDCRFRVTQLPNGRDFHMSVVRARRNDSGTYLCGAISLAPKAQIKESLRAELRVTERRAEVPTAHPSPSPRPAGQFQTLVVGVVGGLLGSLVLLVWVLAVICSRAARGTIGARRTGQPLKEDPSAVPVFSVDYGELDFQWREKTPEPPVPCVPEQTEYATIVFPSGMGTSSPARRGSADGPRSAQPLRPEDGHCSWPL

Row | M07e proliferation, EC50 (IL-2Rβ/γ on M07e cells) | M07e proliferation, Maximal fluorescence value (Max Lum) (IL-2Rβ/γ on M07e cells) | M07e-hPD1 proliferation, EC50 (human PD-1) | M07e-hPD1 proliferation, Maximal fluorescence value (Max Lum) (human PD-1) | Binder
1 | 84.6 nM | 4.24e+06 Lum | 0.032 nM | 7.02e+06 Lum | B1
2 | 54.3 nM | 3.9e+06 Lum | 0.01 nM | 6.72e+06 Lum | B2
3 | – | 4.11e+06 Lum | 0.761 nM | 7.6e+06 Lum | B3
